Laboratory results from PMC4336329 (PLoS ONE, 2015).
The campaign covered roughly 310,000 compounds. About 2,200 (0.71%) showed an effect of 50% or more. The effect is printed as a negative number. Some of the results follow.

The molecules below were run against human ether-à-go-go-related gene (hERG) potassium channel (human, UniProt Q12809) (assay: primary screen, population patch clamp on CHO cells stably expressing hERG).
Sequence of human ether-à-go-go-related gene (hERG) potassium channel (Q12809 whole entry, looked up): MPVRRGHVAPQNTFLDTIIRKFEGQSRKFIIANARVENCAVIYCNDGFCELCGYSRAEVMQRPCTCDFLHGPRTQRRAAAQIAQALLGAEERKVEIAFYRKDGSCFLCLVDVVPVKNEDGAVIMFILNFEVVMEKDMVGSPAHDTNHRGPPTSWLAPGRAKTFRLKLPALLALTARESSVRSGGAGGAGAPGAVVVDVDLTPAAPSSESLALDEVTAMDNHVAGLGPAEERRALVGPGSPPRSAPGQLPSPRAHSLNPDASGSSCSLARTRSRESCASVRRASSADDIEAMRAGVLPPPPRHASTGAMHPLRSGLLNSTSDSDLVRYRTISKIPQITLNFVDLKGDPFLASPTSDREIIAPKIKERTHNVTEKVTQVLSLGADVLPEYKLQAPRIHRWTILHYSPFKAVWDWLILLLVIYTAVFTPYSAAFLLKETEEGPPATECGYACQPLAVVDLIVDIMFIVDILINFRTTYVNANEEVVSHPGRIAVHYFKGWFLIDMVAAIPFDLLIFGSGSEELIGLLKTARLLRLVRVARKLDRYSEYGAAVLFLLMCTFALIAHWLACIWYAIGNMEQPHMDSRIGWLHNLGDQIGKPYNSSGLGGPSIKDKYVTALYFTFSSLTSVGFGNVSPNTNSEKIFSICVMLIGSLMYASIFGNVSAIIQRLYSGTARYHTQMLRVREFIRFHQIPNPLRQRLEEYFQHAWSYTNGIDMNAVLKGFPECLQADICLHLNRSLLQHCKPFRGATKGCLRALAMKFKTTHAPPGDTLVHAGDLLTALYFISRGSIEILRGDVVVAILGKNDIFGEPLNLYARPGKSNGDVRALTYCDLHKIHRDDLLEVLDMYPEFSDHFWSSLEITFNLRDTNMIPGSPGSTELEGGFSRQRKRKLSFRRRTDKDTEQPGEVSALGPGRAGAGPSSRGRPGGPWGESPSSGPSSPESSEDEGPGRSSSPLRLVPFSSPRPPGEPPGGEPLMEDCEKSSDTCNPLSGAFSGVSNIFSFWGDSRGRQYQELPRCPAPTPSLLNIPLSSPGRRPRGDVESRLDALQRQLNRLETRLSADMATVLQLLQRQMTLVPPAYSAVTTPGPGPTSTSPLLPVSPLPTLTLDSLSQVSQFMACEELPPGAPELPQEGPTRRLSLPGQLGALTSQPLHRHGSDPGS

Compound | hERG current change (%, negative = inhibition) at 1uM
CN(C)C=Nc1ccc2nc3c(cc2c1)[nH]c1ccccc13 | 12.7%
Cc1cc(C)c(S(=O)(=O)Cc2ccccc2)c(=O)[nH]1 | 9.25%
COCCNC(=O)COC(=O)c1cc(-c2ccc(OC)cc2)nc2ccccc12 | 12.8%
CSc1n[nH]c(=O)n1-c1ccc(Cl)cc1 | 7.97%
O=C1OC(c2ccccc2)=N/C1=C/c1cccc(OC(=O)c2cccs2)c1 | 9.88%
CC(C)OCCCNC(=O)c1cccc(NC(=O)c2ccccc2)c1 | 4.17%
COc1ccccc1OCCSc1nnnn1C1CCCCC1 | -0.53%
CCOC(=O)c1sc(=NC(=O)COc2ccc(Cl)cc2)n(C)c1C | 9.2%
Cc1nc(Cl)c2c(n1)NC1=C(O2)C(=O)CCC1 | 12.7%
CSCCC1NC(=S)N(Cc2ccccc2)C1=O (stereo not shown) | 17.9%
CC(C)(C)OC(=O)C1C(=O)CC(C)(O)C(C(=O)OC(C)(C)C)C1c1ccco1 (stereo not shown) | 5.21%
CCN(c1ccccc1)S(=O)(=O)c1cc(C(=O)O)ccc1C | 2.11%
O=C(O)c1ccc(-n2c(O)c(C=C3N=c4ccccc4=N3)sc2=S)cc1 | 0.383%
Cc1cc(C)cc(NC(=O)C2CCCN(S(=O)(=O)c3c(C)noc3C)C2)c1 (stereo not shown) | 1.27%
COc1cc2c(cc1OC)-c1cc(OCc3ccccc3Cl)nc(=O)n1CC2 | -7.33%
CC(=O)Nc1ccc(NC(=O)c2c(-c3ccccc3Cl)noc2C)c(C)c1 | 1.96%
CCOC(=O)c1cnn(-c2ncnc3c2cnn3Cc2ccccc2)c1N | 11.4%
CCOC(=O)N1CCN(C(=O)Nc2ccc(Cl)cc2Cl)CC1 | 8.25%
COc1ccccc1CNS(=O)(=O)c1cccs1 | 15.3%
C=CCOc1cccc(C2/C(=C(/O)c3ccc4c(c3)CC(C)O4)C(=O)C(=O)N2CCN2CCOCC2)c1 (stereo not shown) | 7.91%
CC1CCN(S(=O)(=O)c2ccc(NC(=O)CN3CCN(c4ccccc4)CC3)cc2)CC1 | -10.4%
Cc1cccc(N/C(N)=N/c2nc3c(c(=O)[nH]2)CCCC3)c1 | -0.251%

Compound | hERG current change (%, negative = inhibition) at 1uM
CCOC(=O)c1ccc(NC(=O)NS(=O)(=O)c2ccc(C)cc2)cc1 | 10.4%
OC(c1ccncc1)(c1ccc(F)cc1)c1ccc(F)cc1 | 9.19%
COc1ccccc1CNC(=S)Nc1ccc(S(N)(=O)=O)cc1 | 14.6%
COc1cccc(-n2c(SCC(=O)N3CCCCC3)nc3c([nH]c4ccccc43)c2=O)c1 | 12.9%
COC(=O)c1cc(-c2ccccc2)n(CC(=O)O)c1C | 5.29%
CCOC(=O)c1ccc(NC(=S)NC(=O)COc2ccccc2)cc1 | 10.1%
Cc1nc(C)c(-c2ccn(S(=O)(=O)c3ccc(Cl)cc3)n2)o1 | 0.225%
COC/C=C/C1=CC2=CC(=O)C(C)(OC(=O)c3ccco3)C(=O)C2=CO1 (stereo not shown) | 16.9%
O=C(NCCc1nc2ccccc2[nH]1)/C(=C/c1ccco1)NC(=O)c1ccc(Br)o1 | -9.29%
CCOc1ccccc1N1CCN(C/C=C/c2ccc(N(C)C)cc2)CC1 | -20.3%
Cn1c(N)c(C(=O)COC(=O)c2cc(S(=O)(=O)N3CCCCC3)ccc2Cl)c(=O)n(C)c1=O | 3.34%
CC(C)(C)c1nnc2sc(SCC(=O)c3ccc4c(c3)OCCO4)nn2c1=O | 8.46%
CN(CCNC(=O)CN1C(=O)CSc2ccc(S(=O)(=O)N3CCCC3)cc21)Cc1ccccc1 | 5.11%
CC(=O)Nc1ccccc1C(=O)C(=O)O | 6.28%
CC(NC(=O)C(=O)N1CCCCC1)C(c1cccs1)N1CCN(C)CC1 (stereo not shown) | 16.4%
COCCCn1c(SCC(=O)N(C)C)nnc1-c1ccccc1 | 16.7%
NS(=O)(=O)c1cc(C(=O)OCC(=O)c2ccccc2)c(Cl)cc1Cl | 20.4%
CC(C)Cn1c(N)c(C(=O)COC(=O)C2Cc3ccccc3CN2S(C)(=O)=O)c(=O)n(C)c1=O (stereo not shown) | -8.91%
COc1ccc(CNc2nc3ccccc3n2CCN2CCCCC2)c(OC)c1 | -28.3%
O=C(c1ccco1)N1CCN(c2ccnc3cc(Cl)ccc23)CC1 | -63.6%
O=C(c1cccc(S(=O)(=O)N2CCc3ccccc3C2)c1)N1CCN(c2ccc(O)cc2)CC1 | 10.2%
Cc1ccc2cc3c(N)c(C(=O)N4CCOCC4)sc3nc2c1 | 7.38%

Compound | hERG current change (%, negative = inhibition) at 1uM
CCc1ccc(S(=O)(=O)NC(=S)Nc2ccccc2)cc1 | 11.4%
CCOC(=O)CN(Cc1sccc1C)C(=O)Nc1ccc(OC)cc1OC | 13.9%
Cc1[nH]c2ccccc2c1-c1csc(NC(=O)CSCC(=O)O)n1 | 2.01%
O=Cc1ccc(-c2ccccc2C(=O)O)o1 | 13%
O=C(NCC(=O)N1CCCCCCC1)c1ccc(Cl)cc1 | 6.55%
CCOC(=O)[C@H]1[C@H]2COc3ccc(OC)cc3[C@@H]2N2C(=O)c3ccc(Cl)cc3NC(=O)[C@@]12C | -1.11%
O=C(Oc1cccc(/C=N/NC(=O)c2ccccn2)c1)c1ccc([N+](=O)[O-])cc1 | 17.5%
Cc1cc(=O)[nH]c(N/N=C/c2ccc([N+](=O)[O-])cc2)n1 | 4.34%
CCCN1C(=O)C(O)(C/C(C)=N/O)c2ccccc21 (stereo not shown) | 2.73%
O=C(COc1ccccc1C(=O)NCc1ccccc1)Nc1ccccc1 | 9.27%
COc1ccccc1NC(=O)CCS(=O)(=O)c1ccc2c(c1)NC(=O)C(C)S2 (stereo not shown) | 10%
CCC(Cc1ccccc1)NC(=O)C1=C(C)C(=O)OC12CCC(C)CC2 (stereo not shown) | 5.82%
O=C1Cc2ccccc2C(c2ccc(Cl)cc2Cl)N1 (stereo not shown) | -2.05%
CS(=O)(=O)N(CC(=O)NCc1ccco1)c1ccc(OCc2ccccc2)cc1 | 13.9%
CC(=O)NCC(=O)OCC(=O)Nc1nc(-c2ccccc2)cs1 | 13.7%
CC(C)=CC(=O)OCC(=O)Nc1ccc(Cl)cn1 | 20.8%
COc1cc2c(cc1OC)C(C(=O)N1CCC3(CC1)OCCO3)C(c1ccccc1F)N(C)C2=O (stereo not shown) | 2.64%
O=c1[nH]oc(O)c1-c1ncc(C(F)(F)F)cc1Cl | 8.75%
O=C(NC1CCCCC1)C(c1ccncc1)N(Cc1ccc(F)cc1)C(=O)c1ccccn1 (stereo not shown) | 8.75%
O=c1cnnc(Nc2ccc(Cl)c(C(F)(F)F)c2)[nH]1 | 12.2%
COc1cccc(OC)c1NC(=O)NC(=O)c1c(OC)c(Br)cc([N+](=O)[O-])c1OC | 7.77%
Cc1cc2cc3c(cc2nc1SCC(=O)Nc1ccccc1)CCC3 | 3.4%

Compound | hERG current change (%, negative = inhibition) at 1uM
Cc1cccc(NC(=S)N2CCCCC2)c1 | 0.732%
O=Cc1ccc(N2Cc3ccccc3C2)cc1 | 13%
Cc1coc2c(O)cc3c(c12)OC1(N2CCCCC2)C(=O)NCCCC31 (stereo not shown) | 4.44%
CC[C@H](C)[C@@H]1NC(=O)c2cc([N+](=O)[O-])cc(F)c2NCCCC[C@@H](C(N)=O)NC(=O)[C@H](CCCCN)NC1=O | 12.6%
CCOC(=O)NC(=O)c1cn(CCNCCO)c(=O)[nH]c1=O | 7.96%
CCOc1ccc(NC(=O)c2cccc3c2C(=O)N(Cc2cccnc2)C3)cc1 | -0.0027%
Cc1cc(C)c(S(=O)(=O)Nc2cnc3ccccc3c2)c(C)c1 | 13.3%
Cc1ccccc1NC(=O)Cc1nc(COC(=O)c2nc(Cl)ccc2Cl)cs1 | -6.18%
O=C(Cc1ccccc1)Nc1ccc2oc(-c3ccncc3)nc2c1 | 6.04%
COc1cccc(C(=O)Nc2nc3ccccc3[nH]2)c1 | 5.44%
Cc1ccc(-c2nnc(CCC(=O)NCC3C4CC5CC(C4)CC3C5)o2)s1 (stereo not shown) | 7.52%
COC(=O)CCNS(=O)(=O)c1ccc2ccccc2c1 | 11.7%
O=C(CCCCCN1C(=O)c2ccccc2C1=O)NCCc1nc2ccccc2[nH]1 | 12.4%
COc1ccc2c3c(cccc13)N(C)N=C2C | 3.57%
CCOc1ccc(NS(=O)(=O)c2ccc(C(=O)NCC(c3ccccc3OC)N3CCCC3)cc2)cc1 (stereo not shown) | 1.53%
CCN(CC)CCCNC(=O)c1cc2nc(-c3ccccc3)cc(C(F)(F)F)n2n1 | 14.7%
CC(C)CCNC(=O)c1sc2ccc(S(=O)(=O)N3CCCCC3)cc2c1N | 10.9%
CC(=O)c1ccc(OCCCC(=O)Nc2cc(S(=O)(=O)N(C)C)ccc2C)cc1 | 5.23%
COc1cc(C2C(C#N)=C(N)OC3=C2C(=O)CCC3)ccc1OC(=O)N1CCOCC1 (stereo not shown) | 5.59%
COc1ccc(OCC(=O)Nc2cc(-c3nn(C)c(=O)c4ccccc34)ccc2N2CCOCC2)cc1 | 9.48%
COc1ccc(Cl)cc1S(=O)(=O)N1CCCC1 | 8.04%
CC(Cc1ccccc1)C(=O)Nc1ccccc1 (stereo not shown) | 8.95%
